{
  "source": "paper PMC4336329",
  "about": "(PLoS ONE, 2015)",
  "note": "Among all 310,000 compounds or so, about 14,000 (4.5%) showed an effect of 50% or more. Effects have a minus sign here. The list shows a part of the results.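 Note: peak tail current of the secondary pulse compared with the same well before compound.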",
  "data": [
    {"target": "human ether-à-go-go-related gene (hERG) potassium channel (human, UniProt Q12809)", "sequence (Q12809 whole entry, looked up)": "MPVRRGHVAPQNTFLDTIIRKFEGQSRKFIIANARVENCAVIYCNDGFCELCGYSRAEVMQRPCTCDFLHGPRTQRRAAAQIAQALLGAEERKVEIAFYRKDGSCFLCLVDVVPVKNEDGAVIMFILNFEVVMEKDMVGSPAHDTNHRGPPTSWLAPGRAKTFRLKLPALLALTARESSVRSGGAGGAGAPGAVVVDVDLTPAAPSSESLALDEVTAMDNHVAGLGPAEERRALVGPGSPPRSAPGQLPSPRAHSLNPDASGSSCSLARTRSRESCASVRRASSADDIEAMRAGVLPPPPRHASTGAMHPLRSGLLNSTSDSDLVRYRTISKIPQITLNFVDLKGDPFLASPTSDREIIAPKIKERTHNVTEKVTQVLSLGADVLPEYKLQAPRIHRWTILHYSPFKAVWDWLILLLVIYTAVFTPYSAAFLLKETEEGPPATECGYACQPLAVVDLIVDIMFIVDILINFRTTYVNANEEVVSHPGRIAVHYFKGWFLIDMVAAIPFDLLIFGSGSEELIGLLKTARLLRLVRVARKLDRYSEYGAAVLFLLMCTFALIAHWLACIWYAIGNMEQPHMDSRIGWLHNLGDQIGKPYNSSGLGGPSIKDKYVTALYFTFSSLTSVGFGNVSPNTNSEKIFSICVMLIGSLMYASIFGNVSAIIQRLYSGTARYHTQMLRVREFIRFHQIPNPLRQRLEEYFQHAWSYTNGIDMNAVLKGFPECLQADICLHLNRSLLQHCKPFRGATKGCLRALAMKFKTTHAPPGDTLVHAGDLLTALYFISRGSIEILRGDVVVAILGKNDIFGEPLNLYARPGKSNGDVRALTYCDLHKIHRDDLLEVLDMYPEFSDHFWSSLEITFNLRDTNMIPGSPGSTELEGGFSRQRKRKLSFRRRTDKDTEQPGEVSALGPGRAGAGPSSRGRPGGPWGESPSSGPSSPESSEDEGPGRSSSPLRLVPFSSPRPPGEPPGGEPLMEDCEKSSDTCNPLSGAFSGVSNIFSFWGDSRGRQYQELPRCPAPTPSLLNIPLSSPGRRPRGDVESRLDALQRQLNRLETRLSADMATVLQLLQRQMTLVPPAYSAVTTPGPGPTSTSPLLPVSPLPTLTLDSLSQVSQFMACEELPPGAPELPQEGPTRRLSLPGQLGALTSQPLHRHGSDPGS", "test": "primary screen, population patch clamp on CHO cells stably expressing hERG", "units": {"hERG current change (%, negative = inhibition) at 10uM": "%"}, "values": [
      {"smiles": "CC1(C)CC(NC(=S)NCc2ccc3c(c2)OCO3)CC(C)(C)N1", "hERG current change (%, negative = inhibition) at 10uM": 20.7},
      {"smiles": "COc1ccc(C(=O)c2ccc(Cl)c([N+](=O)[O-])c2)cc1", "hERG current change (%, negative = inhibition) at 10uM": -1.33},
      {"smiles": "CSC1=N/C(=C/c2cccnc2)C(=O)N1Cc1ccccc1", "hERG current change (%, negative = inhibition) at 10uM": -35.1},
      {"smiles": "Cc1ccc(-c2cc(C(=O)N3CCOCC3)no2)cc1", "hERG current change (%, negative = inhibition) at 10uM": -31},
      {"smiles": "O=S(=O)(c1ccc2c(c1)OCCO2)N1CCN(Cc2ccccc2)CC1", "hERG current change (%, negative = inhibition) at 10uM": -9.92},
      {"smiles": "CN(C)CCCCNCCCNC(=O)/C=N\\O", "hERG current change (%, negative = inhibition) at 10uM": 20.4},
      {"smiles": "COCCn1nnnc1C(c1cc(OC)ccc1OC)N1CCc2ccccc2C1.Cl", "note": "(stereo not shown)", "hERG current change (%, negative = inhibition) at 10uM": 9.4},
      {"smiles": "Cc1ccn(CC(=O)NC2CCCN(Cc3ccc(CC(C)C)cc3)C2)n1", "note": "(stereo not shown)", "hERG current change (%, negative = inhibition) at 10uM": -55.2},
      {"smiles": "C=CCOC(=O)C1=C(C)NC(=O)NC1c1ccc(OCC)cc1", "note": "(stereo not shown)", "hERG current change (%, negative = inhibition) at 10uM": -4.06},
      {"smiles": "C=CCc1c(C)nn(CC(=O)O)c1-c1ccccc1", "hERG current change (%, negative = inhibition) at 10uM": 12.5},
      {"smiles": "O=C(NCC1CCCO1)c1ccccc1-c1nc(-c2ccc(F)cc2)no1", "note": "(stereo not shown)", "hERG current change (%, negative = inhibition) at 10uM": -31.1},
      {"smiles": "CCOC(=O)c1[nH]c2ccc(Cl)cc2c1-c1ccccc1", "hERG current change (%, negative = inhibition) at 10uM": 17},
      {"smiles": "CCCC(NC(=O)C(C)Sc1nnnn1C1CC1)c1ccccc1", "note": "(stereo not shown)", "hERG current change (%, negative = inhibition) at 10uM": 0.793},
      {"smiles": "CC1CN(C(=O)c2cccc(S(=O)(=O)Nc3ccc(Cl)cc3)c2)CC(C)O1", "note": "(stereo not shown)", "hERG current change (%, negative = inhibition) at 10uM": 14.5},
      {"smiles": "COc1ccc(C#Cc2ccc3c(=O)c4ccccc4n(C)c3c2)cc1", "hERG current change (%, negative = inhibition) at 10uM": 18},
      {"smiles": "CCOc1cc(N2CCOCC2)c(OCC)cc1NC(=O)c1ccc(NC(C)=O)cc1", "hERG current change (%, negative = inhibition) at 10uM": 6.94},
      {"smiles": "O=C(NC(=S)N1CCCC1)c1cccc([N+](=O)[O-])c1", "hERG current change (%, negative = inhibition) at 10uM": 19.9},
      {"smiles": "Cc1cc(O)c(NC(=O)c2cc([N+](=O)[O-])ccc2Cl)cc1C", "hERG current change (%, negative = inhibition) at 10uM": -20.6},
      {"smiles": "COc1cccc(CC2(CO)CCCN(Cc3c(C)cc(C)cc3-n3cccn3)C2)c1", "note": "(stereo not shown)", "hERG current change (%, negative = inhibition) at 10uM": -84.4},
      {"smiles": "CSc1ccc(C(=O)C2CCCN(Cc3ccn[nH]3)C2)cc1", "note": "(stereo not shown)", "hERG current change (%, negative = inhibition) at 10uM": -26.6},
      {"smiles": "CCOc1ccc(C(=O)NC2CC3CCCC(C2)N3CC(C)C)cc1", "note": "(stereo not shown)", "hERG current change (%, negative = inhibition) at 10uM": -41.1},
      {"smiles": "OC1CCN(C(c2ccc3ncccc3c2)c2nnnn2C2CCCCC2)CC1", "note": "(stereo not shown)", "hERG current change (%, negative = inhibition) at 10uM": -31.8},
      {"smiles": "O=C(CSc1nc2ccccc2s1)Nc1nccs1", "hERG current change (%, negative = inhibition) at 10uM": 14},
      {"smiles": "NC(=O)c1sc2nc(-c3ccco3)ccc2c1N", "hERG current change (%, negative = inhibition) at 10uM": 8.56},
      {"smiles": "Cc1ccccc1CC1SC(N=C(N)N)=NC1=O", "note": "(stereo not shown)", "hERG current change (%, negative = inhibition) at 10uM": 4.41},
      {"smiles": "O=C(NCCCC(=O)N1CCCCC1)c1ccc(Cl)cc1", "hERG current change (%, negative = inhibition) at 10uM": -2.72},
      {"smiles": "O=C(CSc1nncc(=O)[nH]1)NC1CCCCC1", "hERG current change (%, negative = inhibition) at 10uM": 27},
      {"smiles": "Cc1cc2oc(=O)cc(CN(C)Cc3ccccc3F)c2cc1Cl", "hERG current change (%, negative = inhibition) at 10uM": 4.97},
      {"smiles": "CN(CCCN1c2ccccc2CCc2ccccc21)CC(=O)c1ccc(Cl)cc1.Cl", "hERG current change (%, negative = inhibition) at 10uM": -9.81},
      {"smiles": "CSc1nc(-c2ccccc2)c2cc(Cl)ccc2n1", "hERG current change (%, negative = inhibition) at 10uM": 13.2},
      {"smiles": "Cc1ccc(C)c(NC(=O)CCN2CC(C)CC(C)C2)c1", "note": "(stereo not shown)", "hERG current change (%, negative = inhibition) at 10uM": 3.58},
      {"smiles": "COc1ccccc1/C=C1/SC(=O)N(CCC(=O)Nc2ccc(S(=O)(=O)Nc3nccs3)cc2)C1=O", "hERG current change (%, negative = inhibition) at 10uM": 5.05},
      {"smiles": "CN(C)S(=O)(=O)c1ccc(C(=O)NCc2nnc(SCC(=O)NCc3ccco3)o2)cc1", "hERG current change (%, negative = inhibition) at 10uM": 15.8},
      {"smiles": "Cc1noc(C)c1S(=O)(=O)N(CC(=O)N1CCCCCC1)c1ccc(C(C)C)cc1", "hERG current change (%, negative = inhibition) at 10uM": -17},
      {"smiles": "O=C(Nc1ccc(N2CCOCC2)cc1)c1ccc(S(=O)(=O)NCc2ccco2)cc1", "hERG current change (%, negative = inhibition) at 10uM": 9.5},
      {"smiles": "CC(C)NCC(O)COc1ccc(CC(N)=O)cc1", "note": "(stereo not shown)", "hERG current change (%, negative = inhibition) at 10uM": 24.2},
      {"smiles": "COc1cc2[nH]c(=S)n(Cc3ccc(C)o3)c(=O)c2cc1OC", "hERG current change (%, negative = inhibition) at 10uM": 4},
      {"smiles": "CCN(CC)CC#CCC(C)(c1ccccc1)c1ccccc1.Cl", "hERG current change (%, negative = inhibition) at 10uM": -54.8},
      {"smiles": "O=[N+]([O-])c1cccc(N/N=C/c2ccc(N3CCOCC3)cc2)c1", "hERG current change (%, negative = inhibition) at 10uM": 7.91},
      {"smiles": "O=C(CCCN1C(=O)c2cccc3cccc(c23)C1=O)NC1CCS(=O)(=O)C1", "note": "(stereo not shown)", "hERG current change (%, negative = inhibition) at 10uM": -3.7},
      {"smiles": "CCOC(=O)c1c(NC(=O)CSc2nncs2)sc(C)c1C", "hERG current change (%, negative = inhibition) at 10uM": 15.5},
      {"smiles": "Cc1sc2nc(CN(Cc3cccs3)C(=O)C3CC3)[nH]c(=O)c2c1C", "hERG current change (%, negative = inhibition) at 10uM": -22.3},
      {"smiles": "COc1cccc(CN2CC(C(=O)NCCN3CCOC3=O)CCC2=O)c1", "note": "(stereo not shown)", "hERG current change (%, negative = inhibition) at 10uM": 14.8},
      {"smiles": "O=C(CC1NCCN(Cc2ccccc2)C1=O)Nc1ccc(Cl)cc1", "note": "(stereo not shown)", "hERG current change (%, negative = inhibition) at 10uM": 5.5},
      {"smiles": "COC(=O)CN1C(=S)N(c2ccc(OC)cc2)C(=O)C1CC(=O)Nc1ccc(F)cc1", "note": "(stereo not shown)", "hERG current change (%, negative = inhibition) at 10uM": -24.6},
      {"smiles": "C[C@H]1CN=C(N(C)C)N1CCc1ccccc1", "hERG current change (%, negative = inhibition) at 10uM": 6.72},
      {"smiles": "CCOc1ccc(-c2c(C(=O)N/N=C/c3ccc(C)s3)nnn2-c2nonc2N)cc1", "hERG current change (%, negative = inhibition) at 10uM": 9.87},
      {"smiles": "O=C(c1ccco1)N1CCN(C(=O)c2cc3ccccc3oc2=O)CC1", "hERG current change (%, negative = inhibition) at 10uM": -13.2},
      {"smiles": "Cc1nonc1-c1nc(-c2nonc2N)n[nH]1", "hERG current change (%, negative = inhibition) at 10uM": 13.1},
      {"smiles": "Cc1cc(C(=O)O)ccc1-c1ccc(/C=N/n2cnnc2)o1", "hERG current change (%, negative = inhibition) at 10uM": 12.8},
      {"smiles": "CCOC(=O)C1=C(C)Nc2ccccc2N/C1=N\\S(=O)(=O)c1cc(C(=O)O)ccc1Cl", "hERG current change (%, negative = inhibition) at 10uM": 6.36},
      {"smiles": "O=C(CSc1nccn1-c1ccc(F)cc1)NCc1ccc(F)cc1", "hERG current change (%, negative = inhibition) at 10uM": -8.5},
      {"smiles": "COc1ccc(OCC(NS(=O)(=O)c2ccc(-n3cnnn3)cc2)C(C)C)cc1", "note": "(stereo not shown)", "hERG current change (%, negative = inhibition) at 10uM": -52.2},
      {"smiles": "CCc1ccc(NC(=O)C(=O)NNC(=O)COc2cccc(OC)c2)cc1", "hERG current change (%, negative = inhibition) at 10uM": 0.332},
      {"smiles": "Nc1c(-c2ccccc2)c(CN2CCOCC2)nn1-c1cccc([N+](=O)[O-])c1", "hERG current change (%, negative = inhibition) at 10uM": -19.4},
      {"smiles": "CCOc1cc(C2C3=C(CC(C)(C)CC3=O)Nc3n[nH]c(C)c32)ccc1O", "note": "(stereo not shown)", "hERG current change (%, negative = inhibition) at 10uM": 15.5},
      {"smiles": "O=C(NCCc1ccccc1)C(=O)NCC1CCCN1S(=O)(=O)c1ccccc1", "note": "(stereo not shown)", "hERG current change (%, negative = inhibition) at 10uM": -41.9},
      {"smiles": "Cc1ccccc1-n1c(=S)[nH]c2nc3c(cc2c1=O)COC(C)(C)C3", "hERG current change (%, negative = inhibition) at 10uM": 21.3}
    ]}
  ]
}
